Reference: PubChem BioAssay AID411 (National Center for Advancing Translational Sciences (NCATS), 2006)
About 1,600 (2.2%) of roughly 72,000 compounds were called active. The shares of active, inactive and inconclusive entries below differ from those in the screen. Calls follow the shape of the dose curve; as a rule, active = well fitted inhibition curve with a large enough effect; inconclusive = small, poorly fitted or top-dose-only effect; inactive = flat fitted curve, though single readings scatter. No potency is given beside an inconclusive call; the fits are too rough.
% is scaled to controls: 0 for no effect and ±100 for the full control effect; potency is read from the fitted curve at half-maximal effect; tags tell the direction and shape of the fitted curve.
Also: nearly all actives have a fitted effect of over 40% in size.

What follows are compounds tested against Luciferin 4-monooxygenase (Photinus pyralis) (UniProt P08659) (assay: qHTS Assay for Inhibitors of Firefly Luciferase). Conditions: purified firefly luciferase, luminescence, 8 min; series mostly up to 57.1 µM.
Sequence of UniProt P08659 (P08659 whole entry, looked up): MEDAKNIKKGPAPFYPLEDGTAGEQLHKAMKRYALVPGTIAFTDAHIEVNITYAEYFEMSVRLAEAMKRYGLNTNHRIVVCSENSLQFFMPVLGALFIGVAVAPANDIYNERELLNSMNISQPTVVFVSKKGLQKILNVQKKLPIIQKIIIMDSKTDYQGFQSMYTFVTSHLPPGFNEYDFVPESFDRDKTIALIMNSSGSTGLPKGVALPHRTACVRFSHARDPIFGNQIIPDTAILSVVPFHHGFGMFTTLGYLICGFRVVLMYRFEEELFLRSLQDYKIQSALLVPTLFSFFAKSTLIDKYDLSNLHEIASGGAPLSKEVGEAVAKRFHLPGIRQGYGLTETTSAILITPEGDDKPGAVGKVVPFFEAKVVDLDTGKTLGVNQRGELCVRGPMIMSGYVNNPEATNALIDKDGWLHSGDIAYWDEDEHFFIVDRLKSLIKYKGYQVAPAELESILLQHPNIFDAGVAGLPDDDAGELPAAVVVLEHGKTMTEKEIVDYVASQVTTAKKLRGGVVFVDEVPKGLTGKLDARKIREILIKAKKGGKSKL
Method: To aid in the interpretation of high-throughput screening (HTS) results derived from luciferase-based assays, we used quantitative HTS, an approach that defines the concentration-response behavior of each library sample, to profile the ATP-dependent luciferase from Photinus pyralis against more than 72 000 samples. Luciferase (PKLight, Cambrex Corporation) was assayed for its ability to generate light using ATP and luciferin as substrates. The ATP concentration in the assay (10 uM) was within the linear range of enzyme activity for the assay conditions used. See following reference for further details: [1] Auld DS, Southall NT, Jadhav A, Johnson RL, Diller DJ, Simeonov A, Austin CP, Inglese J. Characterization of chemical libraries for luciferase inhibitory activity. J Med Chem. 2008 Apr 24;51(8):2372-86. Auld DS, Zhang YQ, Southall NT, Rai G, Landsman M, Maclure J, Langevin D, Thomas CJ, Austin CP, Inglese J. A Basis for Reduced Chemical Library Inhibition of Firefly Luciferase Obtained from Directed Evolution. J. Med. Chem., 2009, 52 (5), pp 1450#1458 [3] Auld DS, Thorne N, Nguyen DT, Inglese J. A specific mechanism for nonspecific activation in reporter-gene assays. ACS Chem Biol. 2008 Aug 15;3(8):463-70. Auld DS, Thorne N, Maguire WF, Inglese J. Mechanism of PTC124 activity in cell-based luciferase assays of nonsense codon suppression. Proc Natl Acad Sci U S A. 2009 Mar 3;106(9):3585-90. Inglese J, Auld DS, Jadhav A, Johnson RL, Simeonov A, Yasgar A, Zheng W, Austin CP. Quantitative high-throughput screening: a titration-based approach that efficiently identifies biological activities in large chemical libraries. Proc Natl Acad Sci U S A. 2006 Aug 1;103(31):11473-8.
Four uL of substrate mix (final concentration, 50 mM imidazole pH 7.2, 50 mM KCl, 7 mM MgCl2, 10 uM ATP, 0.01% Tween 20, 0.05% BSA) was dispensed into white 1536 well plates. Twenty-three nL of compound was delivered by a pin tool and 2 uL of luciferase detector mix (PKLight, Cambrex) was added. Following 8-minute incubation at ambient temperature, luminescence was measured by a ViewLux (Perkin Elmer) at 5 seconds exposure/plate.
With `CC(C)NS(=O)(=O)c1ccc(OCC(=O)N2CCN(C)CC2)cc1` the Potency was “inactive”.
With `O=C(O)c1cc[c]([Hg][Cl])cc1` the Potency was active: 15.8 µM.
For `Cc1ccc(-n2c(O)c(C=Nc3ccccc3N)c(=O)[nH]c2=O)cc1C`, the Potency was inconclusive [inhibitor, single point].
With `O=C1CN(C(=O)CN2CCCCC2)C(c2ccccc2)c2cc(Br)ccc2N1` (stereo not given) the Potency was inconclusive [inhibitor, single point].
For `CN(CC(=O)N1CCc2ccccc21)S(=O)(=O)c1cccs1`, the Potency was inconclusive [inhibitor, single point].
For `O=C(Oc1ccccc1)c1cc2ccccc2o1`, the Potency was inconclusive [inhibitor, single point].
In the case of `COc1ccc(CN2CCN(C(=O)Cc3ccccc3)CC2)c(OC)c1`, the Potency is reported as “inactive”.
In the case of `CN[C@@H](C)[C@@H](O)c1ccccc1`, the Potency is reported as inconclusive [inhibitor, single point].
For `O=C(CN1CCCC1)Nc1ccc(NC(=O)Nc2ccccc2)cc1`, the Potency was inconclusive [inhibitor, single point].
`Clc1ccc(CO[C@@H](Cn2ccnc2)c2ccc(Cl)cc2Cl)cc1` was tested, and the Potency was “inactive”.
In the case of `COCCCn1c(N)c(C(=O)NCCC(C)C)c2nc3ccccc3nc21`, the Potency is reported as “inactive”.
`Cn1cnc2cc(NC(=O)c3ccc(Cl)cc3)ccc21` was tested, and the Potency was active: 12.6 µM.
With `Cc1ccc2nc3c(cc2c1)CC1(C(=O)N(C)C(=O)N(C)C1=O)C1COCCN31` (stereo not given) the Potency was inconclusive [inhibitor, partial curve].
For `O=CN1C[C@H]2C[C@@H](C1)c1cccc(=O)n1C2`, the activity change, negative = inhibition was inactive: 0.524% [at 11.4 µM].
`CCCCCCn1c(=O)c(C(=O)Nc2ccncc2)c(O)c2ccccc21` was tested, and the Potency was “inactive”.
`O=C1NC(=O)N(C2CCCCC2)C(=O)C1C1c2ccccc2C(=O)N1Cc1ccccc1` (stereo not given) was tested, and the Potency was inconclusive [inhibitor, partial curve].
`O=C(c1cc(-c2ccccc2)nc2ccccc12)N1CCC2(CC1)OCCO2` was tested, and the Potency was inconclusive [inhibitor, partial curve].
In the case of `O=C(c1cccc(N2CCCC2=O)c1)N1CCC2(CC1)OCCO2`, the Potency is reported as “inactive”.
With `Cc1nc2cc(C(F)(F)F)ccc2n1C1CCN(Cc2nnnn2Cc2ccc3c(c2)OCO3)CC1` the Potency was “inactive”.
In the case of `CCN(CC)C(=O)N[C@H]1C[C@H]2c3cccc4[nH]cc(c34)C[C@@H]2N(C)C1`, the Potency is reported as “inactive”.
For `Cc1oc(/N=C/c2ccc3c(c2)OCO3)c(C#N)c1C`, the Potency was inconclusive [inhibitor, full curve, poor fit].
With `CC(=NCCCN1CCOCC1)c1c(O)n(-c2ccccc2C)c(=O)[nH]c1=O` the Potency was inconclusive [inhibitor, partial curve].
For `Cc1cccc(N2CCc3c2nc2ccccc2c3N)c1`, the Potency was inconclusive [inhibitor, partial curve].
In the case of `O=C(O)c1cc[c]([Hg][S]c2ncnc3nc[nH]c23)cc1`, the Potency is reported as inconclusive [inhibitor, partial curve, poor fit].
`Clc1ccc(N2C[C@H]3CC[C@@H](C2)N3)nn1` was tested, and the Potency was “inactive”.
For `CN(C)CCC(C#N)(c1ccccc1)c1ccccc1`, the activity change, negative = inhibition was inactive: 0.893% [at 11.4 µM].
`N#CC(C(=O)C12CC3CC(CC(C3)C1)C2)c1nc2ccccc2[nH]1` (stereo not given) was tested, and the Potency was inconclusive [inhibitor, partial curve].
For `c1ccc2c(CN3CCN(C4CCCCC4)CC3)c[nH]c2c1`, the Potency was inconclusive [inhibitor, partial curve].
`CCCN1CCO[C@@H]2c3cc(O)ccc3OC[C@@H]21` was tested, and the Potency was inconclusive [inhibitor, single point].
`CN1CCN(C(=O)COc2ccc(-c3nc4ccccc4s3)cc2)CC1` was tested, and the Potency was active: 0.794 µM.
